22 molecules from publication PMC12136788 can be followed below.

Sequences and labels used below:
T1: UNK ZnF1-6 (called full-length) (human, UniProt Q9C0B0 30-357)
T1 sequence: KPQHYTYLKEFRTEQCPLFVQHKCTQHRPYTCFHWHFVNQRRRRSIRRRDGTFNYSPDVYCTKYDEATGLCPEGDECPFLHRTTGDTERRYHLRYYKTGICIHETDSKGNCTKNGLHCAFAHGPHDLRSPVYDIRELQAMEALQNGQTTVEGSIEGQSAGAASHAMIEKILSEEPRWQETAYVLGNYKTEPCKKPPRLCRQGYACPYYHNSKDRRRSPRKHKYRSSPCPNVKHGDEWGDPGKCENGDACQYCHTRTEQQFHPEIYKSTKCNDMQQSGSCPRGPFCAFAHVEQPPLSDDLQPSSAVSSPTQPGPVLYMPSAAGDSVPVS

B1: chr12:39370042:39370220:-|CDS|ENSG00000139116|unk|FALSE|unique (ssRNA)
RNA: GGGAGUUCUACAGUCCGACGAUCUACUUUUGACUAUGUAUUUGACAUUGACUCCCAGCAAGAGCAGAUCUACAUUCAAUGUAUAGAAAAACUAAUUGAAGGUUGCUUUGAAGGAUACAAUGCUACAGUUUUUGCUUAUGGACACAACAGAGGAUUGAGCAUCA
B2: chr11:95167508:95167609:-|3pUTR|ENSG00000149212|unk|total|mutant (ssRNA)
RNA: GGGAGUUCUACAGUCCGACGAUCAAUAAUGGAGACUGAAUGAGGCGGUUUGUAUUAAAUUAUAUGCCAUGAAGUGUUCAUUUCCGCUUUAACCUAAUUAUGACUGUACCACCAUGAAGUACAGAAUGAAAAAUUAUAUAUAUGCAACAGAGGAUUGAGCAUCA
B3: chr17:72125515:72125616:+|3pUTR|ENSG00000125398|msi1|total|mutant (ssRNA)
RNA: GGGAGUUCUACAGUCCGACGAUCUAAUUAAAACAAAAAAAAAUUCUUUUUUUUUUUUUUUUCCAAUUUUACCUUCUUUAAAACCGGUUGUUGGAGCUUUCCUCAAAGGGUAUGGUCAUCUGUUGUUAAAUUAUGUUCUUAACUCAACAGAGGAUUGAGCAUCA
B4: chr4:78448087:78448188:+|CDS|ENSG00000138759|msi1|FALSE|unique (ssRNA)
RNA: GGGAGUUCUACAGUCCGACGAUCGCCUCUGGAGAAUGGGAGAGUUUUAGUCCAGGGCUCAACCUUCACCUACCAGGAUAUCCUAGCUGGGCUGGUUGGGUAUGUGCCUAGUGUCCCUGGCAUGGUCGUGGAUGAGUUCCAGUUCAACAGAGGAUUGAGCAUCA
B5: chr11:27366961:27367062:-|3pUTR|ENSG00000205213|msi1|total|mutant (ssRNA)
RNA: GGGAGUUCUACAGUCCGACGAUCUGAAUACUUCCUAAUAUCGUUGGCUCUACUAAUAUUUUCCAAUUUGCUGGGAUGUCACCCCGCAACCGCUUGGAUUAUACCGAAAGUAAACUGUGGUCAAUACUUGCAUUUAAUCCGACGCAACAGAGGAUUGAGCAUCA
B6: chr1:232398519:232398625:-|3pUTR|ENSG00000116991|unk|FALSE|unique (ssRNA)
RNA: GGGAGUUCUACAGUCCGACGAUCACAGUAGUUUUAUUUCCACAGCCACAUUACCAUAGCAAUAAGAAAGGAGGCAUAGUACAUAGUUGGAAAAGCUUUGUGGGGGGAUUAAAAAAAAAAAAAAGCACUGUUGUGUUUAACACUCAACAGAGGAUUGAGCAUCA
B7: chr7:157269180:157269282:+|3pUTR|ENSG00000009335|unk|FALSE|unique (ssRNA)
RNA: GGGAGUUCUACAGUCCGACGAUCAUUUUAGGUUGUUUUAUGUUGAAUGUUCUAUAUCUUAUUAGUUAAUUUGUAUAUUUUAUUAGUAUUUUGGAAAUAGCAUAUCUGAGACUGAAGAGAAAUUGACAAUUCACUUAUUUGUGGCAACAGAGGAUUGAGCAUCA
B8: chr15:34978960:34979061:-|3pUTR|ENSG00000198146|msi1|FALSE|unique (ssRNA)
RNA: GGGAGUUCUACAGUCCGACGAUCGCCCUCUGUAUCCAUGUACUCUGCAUCUGUGGAUUAAACCAAUUGCAGAUCAAAAAUAUUAGAAAAAAUAAAAAUAAUACAAAUAAAAAUACAGUAUAACAGUUAUUUAAAUAGCAUUUACAACAGAGGAUUGAGCAUCA
B9: chr2:96875881:96876275:-|three_prime_utr|ENSG00000168754|control|control|control (ssRNA)
RNA: GGGAGUUCUACAGUCCGACGAUCUCGCCCACCCCUCAGCCCUCCUCCCAGCCAUCUCCUCUUCCCUAAGGCCUCUGUCUCCAUAGCUCUGGUUUCCCUGGGCCUCAGUCCUCCCCACCCUCCUUCCUCUGUCUCCCUGUCACUCAACAGAGGAUUGAGCAUCA
B10: chr11:74333230:74333331:-|3pUTR|ENSG00000165434|msi1|total|mutant (ssRNA)
RNA: GGGAGUUCUACAGUCCGACGAUCUGAGUCUUUUAUUGAAGGGUUCAAAGUAAGAAAUACUAUGCCACCGUGUUCUCCAUCUCCCGUGAAGACAGAACCAGAGGGAAUAAGGAUCUUUUUUUUAAAGACAGCAUGGAAAGUUUACAACAGAGGAUUGAGCAUCA
B11: chr5:113594843:113594944:+|3pUTR|ENSG00000047188|msi1|FALSE|bound_elsewhere (ssRNA)
RNA: GGGAGUUCUACAGUCCGACGAUCCAACAUAAAAUCUUGAGAACCUUCUACUUUCUCUGGGAAAGCAUUAUAUAGUGGUGCAUUAGUUUAGAAAGUCAGCUAUGAUUUUGCCUAUAGUUCUAGUUAUUAGCUUUGGGGUUUUCUCAACAGAGGAUUGAGCAUCA
B12: chr8:22006149:22006250:+|3pUTR|ENSG00000130227|msi1|total|mutant (ssRNA)
RNA: GGGAGUUCUACAGUCCGACGAUCGAAUGUAUGAACUGGAGGAAGUUACUACAGUGGAAGGGUUCUUAAUAACAAGGUCUACCCCGCAUGAAGUAUUUAACAUUCUCCCAUCCCUUAAAAAAUAUACAUUUUUAUAAAAUGAAACAACAGAGGAUUGAGCAUCA
B13: chr7:41961162:41961264:-|3pUTR|ENSG00000106571|unk|total|mutant (ssRNA)
RNA: GGGAGUUCUACAGUCCGACGAUCCCCUUGUGUAUCCUGCAGACAUGUAAAAUAAAAUACAAGUUCAUUUUUUUCACCUUUUUCCGAUUUUUUUAAAAAAUAAAAUGUGUAAUCCUUUUUUUAAAAGAAACACAUGUAAAUACACAACAGAGGAUUGAGCAUCA
B14: chr1:3780741:3780842:-|3pUTR|ENSG00000130764|unk|total|mutant (ssRNA)
RNA: GGGAGUUCUACAGUCCGACGAUCCCAAGCCGCUGGGACUACAGGUGUGUGCCACUAAGCUCAGCUAAUUUUUGUAUUUUCCGCCGAGACGGGGUUUCACCAUUUUGACCAGGAUGGUCUUGAUCUCUUGACCUCAUGAUCUGUCAACAGAGGAUUGAGCAUCA
B15: chr1:198253062:198253183:+|CDS|ENSG00000151414|unk|FALSE|unique (ssRNA)
RNA: GGGAGUUCUACAGUCCGACGAUCAUGGGCUAUAAUACAUUAGCCAACUUUCGAAUAGAAAAGAAAAUUGGUCGCGGACAAUUUAGUGAAGUUUAUAGAGCAGCCUGUCUCUUGGAUGGAGUACCAGUAGCUUUAAAAAAAGUGCAACAGAGGAUUGAGCAUCA
B16: chr1:32196777:32196878:+|3pUTR|ENSG00000084652|msi1|FALSE|unique (ssRNA)
RNA: GGGAGUUCUACAGUCCGACGAUCUUUGAAGCUAGUUCAUUGUCCUGCAGGUCCCUUCAUCUUCCAUACCUAGCCCACUCUUUUAGCCCUUACCUUAAAUCUCUCAGAUAAGUUGGUUCACAAAGAAUGUUAAGUACUGAAUCACAACAGAGGAUUGAGCAUCA
B17: chrX:93670929:93671783:-|three_prime_utr|ENSG00000186310|control|control|control (ssRNA)
RNA: GGGAGUUCUACAGUCCGACGAUCUCAUACAGCCUUGAAAAAAGUAAAACCCUGACCUGUAACCUGAACACUAUUAUUCCUUAUAGUCAAGUUUUUGUGGUUUCUUGGUAGUCUAUAUUUUAAAAAUAGUCCUAAAAAGUGUCUCAACAGAGGAUUGAGCAUCA
B18: chr3:57561443:57561544:+|3pUTR|ENSG00000174840|unk|total|mutant (ssRNA)
RNA: GGGAGUUCUACAGUCCGACGAUCGAAAUUUAAAUAUGAAGCCAAACUUUUUAAAAUCCGAAACUACAAAUGGUUAUACUGAUCCGUGUCCCGCCCCGAGUGGUAACCAUGCUUUACUAAUUCAGUUAUGAAAUACAUUAUUUACAACAGAGGAUUGAGCAUCA
B19: chr5:40767470:40767586:-|CDS|ENSG00000132356|unk|FALSE|unique (ssRNA)
RNA: GGGAGUUCUACAGUCCGACGAUCUUUAAGAAGAUAUGUGAUGGGAUCUUCUAUACCCCUCAAUAUUUAAAUCCUUCUGUGAUUAGCCUUUUGAAACAUAUGCUGCAGGUGGAUCCCAUGAAGAGGGCCACAAUCAAAGAUAUCCAACAGAGGAUUGAGCAUCA
B20: chr8:23844609:23844711:-|3pUTR|ENSG00000159167|msi1|FALSE|unique (ssRNA)
RNA: GGGAGUUCUACAGUCCGACGAUCUUUAGGGGUGUUGACACACCAGUUUUGAGUGUACUGUGCCUGGUUUGAUUUUUUUAAAGUAGUUCCUAUUUUCUAUCCCCCUUAAAGAAAAUUGCAUGAAACUAGGCUUCUGUAAUCAAUCAACAGAGGAUUGAGCAUCA
B21: chr6:111661451:111661552:-|3pUTR|ENSG00000010810|msi1|total|mutant (ssRNA)
RNA: GGGAGUUCUACAGUCCGACGAUCCUUUGGAAAAUGCAUUGUAUCGAUGUUAUGUAAAAGGCCAAACCUCUGUUCAGUGUAAACCGUUACUCCAGUGCCAACAAUCCCCGUGCUUUCCUUUUUUAAAAAUGCAAAUCCUAUGUGCAACAGAGGAUUGAGCAUCA
B22: chr4:65323451:65323552:-|3pUTR|ENSG00000145242|msi1|FALSE|unique (ssRNA)
RNA: GGGAGUUCUACAGUCCGACGAUCAUCAAGAAAAAGUACAAUACAGGGUGUAUAUUUAUUUUUUGUGUUAUAAAGUUUACUUUUAGUUGCUCUUCUAGAGAUUAUUAGGUAAUAAAUGUGUAUAUACUGUAUAAUUUGCAAUAUCAACAGAGGAUUGAGCAUCA

This is one part of the list.

The assay addresses T1, UNK ZnF1-6 (called full-length). Nature of the assay: nsRBNS (natural sequence RNA bind-n-seq); RBNS binding buffer (assumed for nsRBNS): 25 mM Tris pH 7.5, 150 mM KCl, 3 mM MgCl2, 0.01% Triton X-100, 500 ug/ml BSA, 20 U/ml SUPERase-In, 4 C; UNK is unkempt and MSI1 is Musashi-1; names of the RNAs are library labels; protein concentration not given here; high values mean tight binding.
B1 had a binding signal of 0.816 enrichment R. To B2 belongs 0.731 enrichment R; to B3, 0.985 enrichment R. In the case of B4, the binding signal worked out at 1.93 enrichment R. As for B5, the figure is 0.452 enrichment R; as for B6, 2.01 enrichment R. In turn, B7 showed a binding signal of 19.7 enrichment R. For B8, the binding signal turned out to be 22.2 enrichment R.

Molecule B9 gave a binding signal of 1.84 enrichment R.

In turn, B10 had a binding signal of 0.264 enrichment R.

B11 displayed a binding signal of 5.33 enrichment R. In turn, B12 gave a binding signal of 0.434 enrichment R. As for B13, the figure is 0.72 enrichment R.

Regarding B14, the binding signal was 0.591 enrichment R. As for B15, the figure is 1.39 enrichment R. As to B16, the binding signal was determined as 1.19 enrichment R. To B17 belongs 3.53 enrichment R. To B18 belongs 1.01 enrichment R; to B19, 0.665 enrichment R; to B20, 0.924 enrichment R. Turning to B21, the binding signal worked out at 0.288 enrichment R. To B22 belongs 3.94 enrichment R.
